Measurements published in the antibiotic and cytotoxicity screens of Wong et al. (2023).
Some of the results follow.

Key:
[1] = test system: HSkMC (human skeletal muscle cells); assay: cytotoxicity call (relative viability < 0.9); conditions: 10 µM
[2] = test system: HepG2; assay: cytotoxicity call (relative viability < 0.9); conditions: 10 µM
[3] = test system: S. aureus RN4220; assay: growth inhibition call (relative growth <= 0.2); conditions: 50 µM

Row | SMILES | cytotoxicity call [1] | cytotoxicity call [2] | growth inhibition call [3]
1 | Cc1cn2nc([C@@H]3CCCCN3C(=O)c3cc(Cl)ccc3NS(C)(=O)=O)cc2nc1N1CC[C@H](N)C1 | inactive | inactive | inactive
2 | C[C@H]1CN([C@@H](C)CO)C(=O)CCCn2cc(nn2)CO[C@H]1CN(C)C(=O)Nc1ccc2c(c1)OCCO2 | inactive | inactive | inactive
3 | C[C@H](CO)N1C[C@H](C)[C@@H](CN(C)S(=O)(=O)c2ccc(Oc3ccccc3)nc2)OCc2cn(nn2)CCCC1=O | inactive | inactive | inactive
4 | C[C@@H]1CN([C@@H](C)CO)C(=O)c2cccc(NC(=O)Nc3ccc4c(c3)OCO4)c2O[C@H]1CN(C)Cc1ccc(C(F)(F)F)cc1 | active | active | inactive
5 | COc1ccccc1CNC(=O)C[C@@H]1C[C@@H]2c3cc(NC(=O)c4cccnc4)ccc3O[C@@H]2[C@@H](CO)O1 | inactive | inactive | inactive
6 | CCN(CC)CCOC(=O)C(c1ccccc1)c1ccccc1.Cl | inactive | inactive | inactive
7 | C[C@@H]1CN([C@@H](C)CO)C(=O)Cc2cc(NC(=O)CCN3CCOCC3)ccc2O[C@H]1CN(C)S(C)(=O)=O | inactive | inactive | inactive
8 | C[C@@H]1CCCCO[C@@H](CN(C)Cc2ccc(C(F)(F)F)cc2)[C@@H](C)CN([C@@H](C)CO)C(=O)c2cc(NS(=O)(=O)c3ccc(Cl)cc3)ccc2O1 | inactive | inactive | inactive
9 | C/C=N/N(C)C=O | inactive | inactive | inactive
10 | C[C@@H]1CCCCO[C@@H](CN(C)C(=O)c2ccccc2)[C@H](C)CN([C@H](C)CO)C(=O)c2cc(NS(=O)(=O)c3cccs3)ccc2O1 | inactive | inactive | inactive
11 | C[C@H]1CN([C@@H](C)CO)S(=O)(=O)c2ccc(C#CC3CC3)cc2O[C@H]1CN(C)Cc1ccccc1F | inactive | inactive | inactive
12 | CC(C)NC(=O)N[C@@H]1C=C[C@H](CC(=O)O)O[C@H]1CO | inactive | inactive | inactive
13 | CC(C)NC(=O)N(C)C[C@@H]1Oc2ccc(NS(=O)(=O)c3cccs3)cc2CC(=O)N([C@H](C)CO)C[C@H]1C | inactive | inactive | inactive
14 | COc1cccc(C#Cc2ccc3c(c2)O[C@H](CN(C)C(C)=O)[C@H](C)CN([C@H](C)CO)S3(=O)=O)c1 | inactive | inactive | inactive
